# ± gives the standard deviation. In all, about 3,700 sequences were measured (“pre-steady-state target cleavage rate”: median about 0.02, highest 2% from about 0.23 on). The entries are a selection whose mix differs from that of the whole data set.
# Test system: MILI (PIWIL2) piRISC loaded with Kctd7 piRNA (26 nt)
# Experiment: pre-steady-state target cleavage rate (min^-1); MIWI and MILI are mouse PIWI proteins and EfPiwi is from a freshwater sponge; tags in brackets are library labels; higher = faster piRNA-guided slicing of the target
# Details: guide: Kctd7 piRNA 5'p-UGUUAAUCUCUCAGAGAAGGUGACAG; auxiliary factor: 500 nM mouse GTSF1
# Method in brief: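 The pre-steady-state cleavage rate was obtained by Cleave-'n-Seq with a burst-and-steady-state fit. A transcribed, DNA-blocked target RNA library (0.1 nM) was mixed with 1 nM active affinity-purified piRISC carrying one synthetic guide, with or without 500 nM GTSF1 partner protein, in HEPES–potassium acetate buffer at 33 °C for 0–8 or 0–960 min. Uncleaved targets were sequenced and normalised to depth and to weakly complementary targets, with three trials pooled and k3 capped at 0.0001 min^-1.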
row,Sequence,pre-steady-state target cleavage rate
1,UAGUGACAGUGCUUCUCUGAUAGAUUAACA,0.00605 ± 0.0024
2,UAGUCUGUCACCUACUCUGAGACAUUAACA,0.027 ± 0.0046
3,UAGUCUGUCACCUUCUGAGAGAGAUUAAGA,0.0268 ± 0.0096
4,UAGUGUGUCUCCAUCUCUGAGAGAUUAACA,0.0826 ± 0.012
5,UAGUGACAGUGGUUCUCUGGGAGAUUAACA,0.00577 ± 0.0014
6,UAGUGACUCAGGUUCUCUGAGAGAUUAAGA,0.00269 ± 0.0022
7,UAGUGACACACCUUCUCUGAGAGAAAAACA,0.0335 ± 0.014
8,UAGUCUGUCACCUUCUCUGAGAGAUGAACA,0.123 ± 0.028
9,UAGUGUGUCACCUUCUCUGAGAGAUAUAACA,0.188 ± 0.02
10,UAGUGACAGACCUACUCUGUGAGAUUAACA,0.0199 ± 0.0049
11,UAGUGACAGUCCUUCUCUGAGAGAUUAUACA,0.0468 ± 0.0077
12,UAGUGACAGACCUUCUCUGUGACAUUAACA,0.0127 ± 0.0045
13,UAGUGAGUCUCCUUCUCUGAGAGAAUAACA,0.0614 ± 0.015
14,UAGUCUGUCACCUUCACUGAGAGAUUAAGA,0.044 ± 0.015
15,UAGUGACAGACCUUGACUGAGAGAUUUUGA,< 0.0001
16,UAGUCUGUCACCUUCUGAGAGAGAUUAACA,0.0742 ± 0.0084
17,UAGUGACAGUGCUUCUCUCAGAGAUUUACA,0.00586 ± 0.003
18,UAGUGACUCUACCUUCUCUGAGAGAUUAACA,0.108 ± 0.0064
19,UAGUGACACAGCAUCUCUGAGAGAUUAACA,0.0345 ± 0.0057
20,UAGUCUGUCACCUUCACUGAGAGAUUUUGA,0.173 ± 0.06
21,UAGUGACAGACCUACUGUGAGAGAUUAACA,0.0731 ± 0.016

row,Sequence,pre-steady-state target cleavage rate
1,UAGUGAGUCACCUUCAGUGAGAGAUUAACA,0.139 ± 0.014
2,UAGUGAGUCACCUUCUCUGAGAGUUUUUGA,0.105 ± 0.036
3,UAGUGAGUCACCUUCUCUGUCAGAUUAACA,0.00721 ± 0.0036
4,UAGUCUGUCACCUACUCUGAGAGAUUAUCA,0.149 ± 0.021
5,UAGUGAGUCACCUUCUCUGAGAGAUUUAGA,0.0242 ± 0.014
6,UAGUGACAGUCCUUCUCUGAGACAUUAUCA,< 0.0001
7,UAGUGACAGUGCUUCUCUGAGAGAUUAGCA,0.00333 ± 0.0027
8,UAGUGACAGUCCUUCUCUGAGAGAUUAAA,0.0128 ± 0.0041
9,UAGUGUCUCACCUUCUCUGACAGAUUAACA,0.0612 ± 0.0098
10,UAGUGACAGUCCUCUCUGAGAGAUUAACA,0.0101 ± 0.0026
11,UAGUGACUCACGUUCUCUGAGAGAUUAAGA,0.0335 ± 0.0083
12,UAGUGACAGAGCUUCUCUGACAGAUUAACA,0.0115 ± 0.0042
13,UAGUGAGUCCCUUCUCUGAGAGAUUAACA,0.191 ± 0.021
14,UAGUCUGUCACGUUCUCUGAGACAUUAACA,0.00948 ± 0.0017
15,UAGUGUGUCACCAUCUCUGUGAGAUUAACA,0.0443 ± 0.0052
16,UAGUGACUCACCUUCUGAGAGAGAUUAUGA,0.00932 ± 0.0043
17,UAGUGACACACCUUCUGAGAGAGAUUUUGA,0.00542 ± 0.0052
18,UAGUGACAGUCCUUCUCAGAGAGAUUAACA,0.0226 ± 0.0049
19,UAGUGACUCACGUUCUCUCAGAGAUUAACA,0.0479 ± 0.0085
20,UAGUGUGUCACGUUCUCUGAGAGAUUAUGA,0.0291 ± 0.012
21,UAGUGACAGUGGAAGUCUGAGAGACUUAACA,< 0.0001

row,Sequence,pre-steady-state target cleavage rate
1,UAGUGUGUCACCAAGUCUGAGAGAUUAACA,0.0703 ± 0.0064
2,UAGUGACACACCUUCUCUGAGAGUAUUAACA,0.156 ± 0.017
3,UAGUGACUCACCUUGUCUGAGAGAUUAAGA,0.00895 ± 0.0061
4,UAGUGACACAGCUUCUCUGAGAGAUAAACA,0.0211 ± 0.0068
5,UAGUGACUCACCUCUCUCUGAGAGAUUAACA,0.134 ± 0.012
6,UAGUGACAGUGCUUCUCUGAGAGUAAUUGA [g8:g19:cont:t1A],< 0.0001
7,UAGUGUCUCACCUUCUCAGAGAGAUUAACA,0.0883 ± 0.01
8,UAGUGACAGAGCCUUCUCUGAGAGAUUAACA,0.0563 ± 0.0061
9,UAGUCUGUCACCUUCUGUGAGUGAUUAACA,0.00564 ± 0.0034
10,UAGUGUGUCACCUACUCUGAGUGAUUAACA,0.00652 ± 0.0051
11,UAGUCUGUUACCUUCUCUGAGAGAUUAACA,0.145 ± 0.011
12,UAGUGACAGUCCUUCUCUGAGACAUUAAGA,< 0.0001
13,UAGUGACAGUCCUUCUCUGAGAGAUUAAACA,0.0891 ± 0.015
14,UAGUCGUCACCUUCUCUGAGAGAUUAACA,0.208 ± 0.014
15,UAGUGAGUCACCUUCUCUGAGAGAUUACCA,0.251 ± 0.05
16,UAGUGAGUCACCUACUCUGAGAGAUAAACA,0.085 ± 0.022
17,UAGUGACUCACCUUCCUCUGAGAGAUUAACA,0.0478 ± 0.0085
18,UAGUCAGUCACCUUCUCUGAGUGAUUAACA,0.00651 ± 0.0043
19,UAGUGACAGUGGAUCUCUGAGAAAUUAACA,< 0.0001
20,UAGUGUGUCACCUUCACUGAGAGAUUUACA,0.107 ± 0.025
21,UAGUGAGUCACCUUCUCUGUGACAUUAACA,0.0173 ± 0.0054

row,Sequence,pre-steady-state target cleavage rate
1,UAGUGACAGACCUUCUCUGAGAGAUUGAACA,0.0765 ± 0.018
2,UAGUGUGUCACCUUCAGAGAGAGAUUAACA,0.02 ± 0.01
3,UAGUGACUCAGCUUCUCUCAGAGAUUAACA,0.0341 ± 0.0077
4,UAGUCUGUCACCUUCUCUGAGGAUUAACA,0.0778 ± 0.025
5,UAGUGAGUGACCUUCUCUGAGAGAUUUACA,0.12 ± 0.027
6,UAGUGACAGACCUUCUCUGAGAGAAUAACA,0.0149 ± 0.0057
7,UAGUGACUCACCUUCUCUGUGAGUUUAACA,0.0218 ± 0.0099
8,UAGUCUGACUCCUUCUCUGAGAGAUUAACA,0.161 ± 0.0079
9,UAGUGACAGUGGAACUCUGAGACUAUAACA,0.0129 ± 0.013
10,UAGUGACAGUGCUUCACUGAGACAUUAACA,0.00422 ± 0.0028
11,UAGUGACAGUGCUUCUCUGAGAGAUUCAACA,0.0213 ± 0.0067
12,UAGUGACAGACCUUCUCUGAGAGAUUAACC [g2:g21:cont:t1C],0.0879 ± 0.011
13,UAGUGACAGUCCUGCUCUGAGAGAUUAACA,0.0774 ± 0.0063
14,UAGUCUGAGUCCUUCUCUGAGAGAUUAACA,0.0823 ± 0.0084
15,UAGUCUGUCACCAUCUCAGAGAGAUUAACA,0.102 ± 0.013
16,UAGUGACUCUCCUUCUCUGAGAGAUUAUGA,0.00854 ± 0.004
17,UAGUGACAGUGCUUCUCUGAGAGUAUUAACA,0.0314 ± 0.0056
18,UAGUGACAGUCCAUCUCUGACAGAUUAACA,0.00443 ± 0.0018
